Measured values taken from ChEMBL document CHEMBL4888484, “Replenishing the malaria drug discovery pipeline: Screening and hit evaluation of the MMV Hit Generation Library 1 (HGL1) against asexual blood stage Plasmodium falciparum ,using a nano luciferase reporter read-out” (2022).
The whole screen tested about 150,000 compounds, of which about 540 (0.36%) showed an effect of 50% or more. Some of the results follow.

System: Plasmodium falciparum
Assay: Primary screen in NF54 nanoGlo assay, in single point, at 2uM, 72h; a lower Z score goes with more inhibition
Format: functional, Erythrocyte
Details: timepoint 72 hour

SMILES	% Inhibition	Z score
Cc1nnccc1NC(=O)NCC[C@@H]1OCCc2ccccc21	0%	0.03
Cc1cccc(S(=O)(=O)N2CCC(OCc3nc(C)no3)CC2)c1	-11%	1.39
O=C(NC1C2CC1N(C(=O)Cc1cccc3ccccc13)C2)c1sccc1F (stereo not drawn)	-3%	0.4
O[C@H](c1ncc[nH]1)C1CCN(Cc2ccccc2C2CC2)CC1	4%	-0.75
CC(C)c1nncn1CCNC(=O)c1cn(C)c(=O)[nH]1	-2%	0.43
Cc1noc(C)c1S(=O)(=O)N1CCC[C@H](c2nnc(C(=O)Nc3ccccc3)s2)C1	-8%	1.14
O=C(CC[C@@H]1CNC(=O)[C@@H]2C[C@H](NC(=O)Nc3cccc(Cl)c3)CN12)NCc1cccnc1	-9%	1.14
CCCO[C@H]1CCCN(c2ncc(C#N)c(N)n2)C1	-13%	2.4
COc1ccc(CN(C)C(=O)C[C@]2(c3cccc(F)c3)CC(=O)N(C3CCCC3)C2=O)cc1OC	3%	-0.46
CCCCNC(=O)CN(C)Cc1nnc(C)s1	2%	-0.21
OC(c1cccnc1)c1nccn1CCOC1CC1(F)F (stereo not drawn)	21%	-2.64
c1cc(-c2noc(CC3CCC4CC34)n2)ncn1 (stereo not drawn)	-4%	0.76
CCCOc1ccccc1[C@H](C)Nc1nc(-c2cccnc2)nc2c1CNC2	4%	-0.56
Cc1cc(C(=O)N2CCOCC2)c(C)s1	-3%	0.42
COc1ccc([C@H]2OCC[C@@H]2NCc2cnc(N3CCN(C)CC3)nc2)cn1	11%	-1.22
CC(=O)N1c2nc(-c3ccco3)nn2C2(CCCCC2)[C@@H]2CCCC[C@@H]21	-25%	2.24
Cc1cnn(C2CN(Cc3cn4c(C)cccc4n3)C2)c1	8%	-1.25
CCCNC(=O)CNc1ccc(F)cc1CS(C)(=O)=O	-9%	0.93
Oc1cc(CNCCc2nccs2)nc2c(F)cccc12	-8%	1.14
CC(C)CN(C(=O)CC#N)c1ccc(C(F)(F)F)cc1	0%	-0.06
CC(=O)c1ccc(-c2ccc(C(=O)NCc3nc4ccccc4[nH]3)o2)cc1	-8%	0.82
O=C([C@@H]1CC=CCC1)N1CCC(Oc2cccc(F)c2)(C(=O)O)CC1	-1%	0.21
C[C@@H](C(N)=O)N1CCc2[nH]nc(-c3cccc4ccccc34)c2C1	-4%	0.55
Nc1c2c(-c3ccc(F)cc3)nc(N3CCN(c4ccccc4)CC3)nc2nn1-c1ccccc1	-3%	0.33
O=C(Nc1ccc(F)cc1)c1c(-c2ccc(Cl)cc2)nc2n1CCS2(=O)=O	30%	-0.02
CCCn1ncnc1[C@H](C)NC(=O)c1ccon1	0%	0.06
CCC1CCC(C(=O)NC2(C(N)=O)CCCCC2)O1 (stereo not drawn)	-11%	1.53

SMILES	% Inhibition	Z score
Cn1nncc1NC(=O)N1Cc2cccnc2N2CCC[C@@H]2C1	9%	-0.94
Fc1ccccc1N1CCN(c2c3c(nc4ccc(Cl)cc24)CCC3)CC1	5%	-0.7
Cc1csc(NC(=O)CCN2C(=O)CCC2=O)n1	6%	-0.95
Cc1noc([C@H](C)N(C)c2nc3c(s2)c(C)nn3C)n1	-10%	1.91
O=C(c1ccoc1)N1CCC(n2nccn2)CC1	18%	-2.01
CCCNC(=O)[C@@H](NC(=O)c1cccc(C)c1)C1CCN(C(=O)CC(C)(C)C)CC1	-6%	1.03
CCC(C)NC(=O)C1CCCN(c2nnc(C)c3c(C)n(-c4ccc(Cl)cc4)nc23)C1 (stereo not drawn)	-9%	1.41
Cc1cc(NC(=O)N2CCCC[C@@H]2CCC(=O)OC(C)(C)C)no1	0%	0.02
COCc1nc(C(=O)N(CC(F)(F)F)c2nc(C)cs2)cs1	-10%	1.35
CC(C)[C@H]1CCCN(C(=O)NCc2ccc(=O)[nH]n2)C1	-4%	0.56
COc1c(C)cnc(Cn2ccn3nc(-c4ccccc4Cl)cc3c2=O)c1C	-4%	0.7
CCN(CC)c1ncccc1CNc1ncccc1C#N	10%	-1.39
Cc1cc(C(=O)N[C@H]2CCN(Cc3csc(C)n3)C[C@@H]2O)nc(N)n1	8%	-1.42
CC(C)c1nn(-c2ccccc2)c(Oc2ccccc2F)c1CN(CC1CC1)C(=O)c1cccc(F)c1	-2%	0.18
O=C(NCc1cccs1)Nc1cccc(Cn2nc3ccccn3c2=O)c1	-11%	0.96
O=C(NCc1ccccn1)[C@@H]1CNc2ccccc21	1%	-0.21
COc1ccc(CCc2nc(NC(=O)c3ccco3)n[nH]2)cc1	-3%	0.36
Cc1n[nH]c(C)c1CCc1n[nH]c(=O)n1-c1c(C)noc1C	-2%	0.49
COCc1nc(CCN2CCCC2=O)n(C2Cc3ccccc3C2)n1	-7%	0.61
O=C(NC1CCc2ccccc21)C1CCCO1 (stereo not drawn)	-2%	0.34
O=C(NC1C2CCOC2C12CCC2)c1ccnc(N2CCCC2)n1 (stereo not drawn)	7%	-1.3
CN(CCN(C)C1CCCC1)C(=O)c1csc(N)n1	-1%	0.25
COCCN1C(=O)CC(CC(=O)N2CCCCC2COC)(c2cccc(OC)c2)C1=O (stereo not drawn)	-17%	2.46
COC(=O)c1nc(NC(=O)c2cc3cc(F)ccc3n2C)sc1-c1ccccc1OC	-11%	1.38
COc1ccc(CN2CCC(c3ncncc3C)CC2)cn1	6%	-0.56
O=C1C2C3C=CC(C3=C3CCCCC3)C2C(=O)N1c1ccccc1C(F)(F)F (stereo not drawn)	5%	-0.62
CCN(CC)c1n[nH]c(NCc2cnn(CC)c2)c1C#N	-7%	1.26
